Where “and” joins values, the source holds several entries; their conditions need not be identical. Equal entries are not always repeated.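 Five compound concentrations were applied to cells in 96-well plates for 48 hours; endpoints were derived by simple linear interpolation of the resulting dose-response curve. The concentration for 50% growth inhibition is given as GI50. TGI marks complete inhibition of growth.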
System: NCI-H322M lung
Test: NCI-60 cell line screen, 48 h

## COc1ccc(/C=C2\CC(C)CC3C2=NN(C(C)=O)C3c2ccc(OC)c(OC)c2)cc1OC (stereo not drawn)
  GI50: 32.9 µM
  TGI: > 100 µM

## O=C(c1ccccc1)c1cc(-c2ccccc2)c(-c2ccccc2)[nH]c(=O)c1=O
  TGI: > 100 µM

## CC(CCC/C=C/CCCN(C)C(=N)N)CC(C)C1OC(=O)C(C)C(O)/C=C/C(C)C(O)C(C)C(O)C(C)C(O)CCCC(O)CC2(O)OC(CC(OC(=O)CC(=O)O)CC(O)CC(O)C(C)C(O)/C=C/C=C/C1C)CC(O)C2O (stereo not drawn)
  GI50: 13.1 µM and 11 µg/mL
  TGI: 28.5 µM and 22.7 µg/mL

## COc1ccc(C2CC(c3cccc(Nc4ccnc5cc(Cl)ccc45)c3)=NN2c2ccc(Cl)cc2)cc1 (stereo not drawn)
  GI50: 15.2 µM
  TGI: > 100 µM

## Oc1ccc(-c2nc(-c3ccc4oc5ccc(-c6[nH]c(-c7ccc(O)cc7)nc6-c6ccccc6)cc5c4c3)c(-c3ccccc3)[nH]2)cc1
  GI50: 13.9 µM
  TGI: 36.6 µM

## C=C1C(=O)O[C@H]2[C@H]1CC/C(Cn1cc(CNC(=O)c3cc4ccccc4[nH]3)nn1)=C\CC[C@@]1(C)O[C@@H]21
  GI50: 14.2 µM
  TGI: 27.6 µM

## CN(C)CCCn1c2c(c3ccc([N+](=O)[O-])cc3c1=O)C(=O)c1ccccc1-2
  GI50: > 100 µM
  TGI: > 100 µM

## COC(=O)c1cc2c([nH]c3ccccc32)c(-c2nc3cc(N(S(=O)(=O)c4ccc(C)cc4)S(=O)(=O)c4ccc(C)cc4)c(OC)cc3cc2CO)n1
  GI50: > 100 µM
  TGI: > 100 µM

## COc1cc(C2C(C(=O)Nc3ccc(Cl)c(Cl)c3)=C(C)NC(C)=C2C(=O)Nc2ccc(Cl)c(Cl)c2)ccc1O
  TGI: 36.6 µM

## COc1ccc2c(c1)CCC1C2CCC2(C)C1CC[C@@]2(O)CNC(=O)/C=C/c1ccc(O)c(O)c1 (stereo partly drawn)
  GI50: 4.29 µM
  TGI: 17.4 µM

## COc1ccc2[nH]c3c(C)c4ccnc(NCCCN(C)CCCNC(=O)NCCCN(C)CCCNc5nccc6c(C)c7[nH]c8ccc(OC)cc8c7c(C)c56)c4c(C)c3c2c1
  TGI: 4.85 µM

## O=C1c2ccccc2C(=O)c2c1c1cc(O)ccc1n2Cc1ccc(Cl)cc1Cl
  TGI: 51.1 µM

## COc1ccc(/C=C(\NC(=O)c2ccccc2)c2nc3ccccc3[nH]2)cc1
  TGI: > 100 µM

## O=C1c2c(ccc3c2CCCC3)CC12Cc1ccccc1C2
  TGI: > 79 µM

## Nc1cc(N)c2nc(-c3ccccc3)c(Sc3ccc(F)cc3)nc2c1
  GI50: 20.6 µM
  TGI: 38.1 µM

## COc1cc2c(cc1C)NC(=O)/C2=C/c1c(Cl)n(C)c2ccccc12
  TGI: 27.5 µM

## O=c1c2ccccc2nc(-c2ccccc2Cl)n1NC1OC(CO)C(O)C(O)C1O (stereo not drawn)
  TGI: > 100 µM

## CCCCCC1C2C(=O)NC(=O)C1C(=O)NC2=O (stereo not drawn)
  TGI: > 100 µM

## O=c1n(CCO)nc2n1CCCN2
  TGI: > 100 µM

## CCCCCC(=O)OC[n+]1ccc2c(C)c3[nH]c4ccccc4c3c(C)c2c1
  TGI: 2.38 µM

## COc1ccccc1C1C(Cl)C(=O)N1NC(=O)Cc1ccccc1 (stereo not drawn)
  TGI: > 100 µM

## Fc1ccccc1N=c1oc2ccc(Br)cc2cc1-c1nc2ccccc2[nH]1
  TGI: > 46.9 µM

## CC(C)NC(=O)OCc1c(COC(=O)NC(C)C)c(-c2ccc[n+](COC(=O)C3CCCCC3)c2)n2c1CCC2
  TGI: > 100 µM

## Cc1cccc(NC(=O)c2sc3nc4c(cc3c2N)CCC4)c1C
  GI50: 0.714 µM
  TGI: 48.3 µM

## CC(C)(C)OC(=O)N(CCCN)CCCCN(CCCN)C(=O)OC(C)(C)C
  TGI: > 100 µM

## COc1cc2c(c(OC)c1OC)-c1c(c3ccc([N+](=O)[O-])cc3c(=O)n1CCCN=[N+]=[N-])C2=O
  GI50: 25.2 µM
  TGI: 81.6 µM

## Cc1ccc(-c2cn3c(nc4ccccc43)c(C)n2)cc1
  TGI: > 100 µM

## COC(=O)C1(C(=O)OC)CC2=C(S(=O)(=O)c3ccccc3)C[C@@H](C#N)[C@H]2C1
  TGI: > 100 µM

## CC(=O)NC1C(=O)CC(c2ccccc2)N(C)C1c1ccccc1 (stereo not drawn)
  TGI: > 100 µM

## CC(C)(C)C(=O)Cc1cc2c(cc1C(=O)O)S(=O)(=O)NC(C(C)(C)C)=C2
  TGI: > 100 µM

## O=C1C2=C(Nc3cc([N+](=O)[O-])ccc3N2)OC1c1c[nH]c2ccc(COc3ccccc3)cc12 (stereo not drawn)
  TGI: > 100 µM

## Clc1ccc(CCn2ccc3ccccc32)c(Cl)c1
  TGI: > 100 µM

## O=S(=O)(CC#CCS(=O)(=O)c1ccccc1)c1ccccc1
  TGI: 30.8 µM

## CN(C)CCCNc1ccc2nnn3c4ccc([N+](=O)[O-])cc4c(=O)c1c23
  TGI: 4.81 µM

## CN(C)CCCN1c2ccc3ccccc3c2Sc2cccc(Cl)c21
  TGI: 16.8 µM

## O=C(Nc1cccc(Cl)c1)c1cc2cc(N=Nc3ccc(Br)cc3)ccc2oc1=O
  TGI: > 100 µM

## S=C(N/N=C/c1ccccc1)NC1CC(c2ccccc2)Oc2ccccc21 (stereo not drawn)
  TGI: > 100 µM

## COc1cc2c(cc1Nc1nc(Nc3ccsc3C(N)=O)c3cc[nH]c3n1)N(C(=O)CN(C)C)CCC2
  GI50: 0.773 µM
  TGI: 5.9 µM

## Cc1ccc(CCNC(=S)SCC(NC(=O)CCC(N)C(=O)O)C(=O)NCC(=O)O)cc1 (stereo not drawn)
  TGI: 11.3 µM

## CC(=S)NC1C(Oc2ccc3c(C)cc(=O)oc3c2)OC(CO)C(O)C1O (stereo not drawn)
  TGI: > 100 µM

## COc1cc(OC)c(-c2oc3ccccc3c(=O)c2O)c(OC)c1
  TGI: > 100 µM

## COc1c(-c2ccc3c(c2)OCO3)oc2cc3c(c(OC)c2c1=O)OCO3
  TGI: 48.5 µM

## O=S(O)CCCSSCCCCSSCCCS(=O)O
  TGI: > 100 µM

## CNCc1ccc(C)c(NC(=O)c2ccc(Nc3nc(-c4ccccc4)c4ccccc4n3)cc2)c1
  GI50: 1.9 µM
  TGI: 3.78 µM

## CC(=O)/C=C\C(=O)NNS(=O)(=O)c1ccc(C)cc1
  TGI: > 100 µM

## O=C(CN1C(=O)c2ccccc2C1=O)NC1(C(=O)O)CCCC1
  TGI: > 100 µM

## C/C=C\C(C)=C/C(C)C(=O)CC(O)CC1CC(=O)NC(=O)C1 (stereo not drawn)
  TGI: > 100 µM

## Cc1cc2c(C#N)n3c(c2cc1C)C(=O)C(c1ccccc1)Oc1ccccc1-3 (stereo not drawn)
  GI50: > 100 µM
  TGI: > 100 µM

## COC(=O)C(I(OS(=O)(=O)c1ccc(C)cc1)c1ccccc1)=P(c1ccccc1)(c1ccccc1)c1ccccc1
  TGI: 87.1 µM

## COc1ccc(/C=N/NC(=O)c2ccccc2Nc2ccccc2C(=O)N/N=C/c2ccc(OC)c(OC)c2)cc1OC
  TGI: > 100 µM

## C/C(=C1/N=C(c2ccccc2)OC1=O)c1cccs1
  TGI: > 100 µM

## CC(C)(Oc1ccc(C2C[C@H]2Cl)cc1)C(=O)O (stereo partly drawn)
  TGI: > 100 µM

## Cc1ccc(S(=O)(=O)c2ccccn2)cc1
  TGI: > 100 µM

## COC(=O)c1c(OC(=O)c2ccccc2)noc1CC(=O)OC1C=CCCC1 (stereo not drawn)
  TGI: > 100 µM

## COc1cc(C2c3cc4c(c(O)c3C(=O)C3CCC(=O)N32)OCO4)cc(OC)c1OC (stereo not drawn)
  TGI: > 100 µM

## CCN(CC)CCC(CNc1c2ccc(Cl)cc2nc2ccc(OC)cc12)c1ccccc1 (stereo not drawn)
  GI50: 1.43 µM
  TGI: 3.99 µM

## Nc1c2ccccc2nc2ccc(C(=O)Nc3ccc(S(N)(=O)=O)cc3)cc12
  TGI: > 100 µM

## CCN1CCc2sc3[nH]c(=S)n(C)c(=O)c3c2C1
  TGI: > 100 µM

## O=C(Cc1nc2ccccc2s1)C(=O)Nc1ccccc1C(F)(F)F
  TGI: > 100 µM

## Nc1n[nH]c(=O)c2c1c(Br)cn2C1OC(CO)C(O)C1O (stereo not drawn)
  TGI: > 100 µM

## COCN1C(=O)[C@@H]2C[C@@H](OC/C=C/CBr)CN2C(=O)c2ccccc21
  TGI: 33.2 µM

## O=C1c2ccccc2CC1C1(O)C(=O)Nc2c(Cl)cc(Cl)cc21 (stereo not drawn)
  TGI: > 100 µM

## CCOC(=O)c1ccccc1NC(c1ccccc1)c1ccc2cccnc2c1O (stereo not drawn)
  GI50: 3.57 µM
  TGI: > 100 µM

## COc1c(C)cnc(Cn2cnc3c(Cl)nc(N)nc32)c1C
  GI50: 0.839 µM
  TGI: > 100 µM

## COc1ccc(/C=C2\CN(Cc3cn(CCCNc4ccnc5cc(Cl)ccc45)nn3)C/C(=C\c3ccc(OC)cc3)C2=O)cc1
  GI50: 10.3 µM
  TGI: 25.7 µM

## C=CCn1c(=O)c(-c2ccccc2)c(O)c2ccccc21
  TGI: > 100 µM

## Cn1c([N+](=O)[O-])cnc1/C=C1\Oc2ccc(Cl)cc2C1=O
  GI50: 2.99 µM
  TGI: 11.4 µM

## CCN(CC)CCCC(C)NC(=S)N/N=C(\C)c1ccccn1 (stereo not drawn)
  GI50: 3.33 µM
  TGI: > 100 µM

## O=c1[nH]c2cccccc-2c1-c1nc2ccccc2[nH]1
  TGI: > 100 µM

## C[CH2][Ge]1([CH2]C)[CH2]CC2(CCN(CCCN(C)C)C2)C[CH2]1
  GI50: 2.04 µM and 1.91 µM
  TGI: 4.37 µM and 4.16 µM

## O=C(N/N=C/c1cc(-c2ccccc2Cl)c(-c2ccccc2Cl)o1)c1ccncc1
  TGI: > 100 µM

## COc1ccc2nccc(C3OC(=O)N4CCC(=O)CC34)c2c1 (stereo not drawn)
  TGI: > 100 µM

## CN(C)c1ccc(/C=C/C(=O)c2ccc(Nc3nc(Nc4ccc(F)cc4)nc(Nc4ccc(Cl)cc4)n3)cc2)cc1
  GI50: 21.6 µM
  TGI: > 100 µM

## CC(C)(C)OC(=O)NCCNC(=O)OCc1ccccc1
  TGI: > 100 µM

## O=C(CSCC(=O)N/N=C\c1cc(Br)cc(Br)c1O)N/N=C\c1cc(Br)cc(Br)c1O
  TGI: 38.7 µM

## CC(=O)OC1C(OC/C2=C/C3[C@@H](C(C)C)CC=C(C)[C@@H]3CC(OC(=O)/C=C/c3cn(C)cn3)[C@]3(C)C=C[C@@]2(O)O3)OCC(O)C1O (stereo partly drawn)
  GI50: 0.0177 µM
  TGI: > 34.8 µM

## COc1cc(/C=C/C(=O)C(C)(C)C)cc(OC)c1OC
  TGI: > 100 µM

## O=C(CCc1nnc2s/c(=C\c3ccc(Cl)cc3Cl)c(=O)n12)Nc1cc(Cl)c(Cl)cc1Cl
  GI50: > 100 µM
  TGI: > 100 µM

## CCOC(=O)C(Cc1ccc(N(CCCl)CCCl)cc1)NC(=O)C(CC(C)C)NC(C)=O (stereo not drawn)
  GI50: 13.1 µM
  TGI: 31.2 µM

## Cc1cn2cc(-c3ccncc3)nc2s1
  TGI: > 100 µM

## Cn1c(N)c(N=Nc2ccc(S(N)(=O)=O)cc2)c(=O)n(C)c1=O
  TGI: > 100 µM

## COC(=O)[C@H]1ON2O[C@H](OC3CCCC[C@@H]3c3ccccc3)C[C@@H]3CC[C@H]1[C@@]32C (stereo partly drawn)
  TGI: > 100 µM

## COC(=O)[C@@H](C)C[C@H](Cc1ccccc1)NC(=O)c1cccc([C@@H](C[C@H](C(C)C)N(C)C(=O)[C@@H](NC(=O)[C@H]2CCCCN2C)C(C)C)OC(C)=O)n1
  GI50: 0.00581 µM
  TGI: > 16.7 µM

## COc1cc(C2C3=C(COC3=O)N(CCO)c3cc4c(cc32)CCC4)cc(OC)c1OC (stereo not drawn)
  GI50: 0.253 µM
  TGI: > 32.5 µM

## Cc1c2cccc-2c(N(C)C)cc2c1[nH]c1ccccc12
  TGI: 21.5 µM

## COC(=O)c1cc(CNCCc2c[nH]c3ccccc23)on1
  TGI: > 100 µM

## COC[C@H](Cc1ccccc1)N=Cc1ccccc1
  TGI: > 100 µM

## Cc1ccc(S(=O)(=O)NC(CCCCN)C(=O)CCl)cc1 (stereo not drawn)
  GI50: > 100 µM
  TGI: > 100 µM

## CC1SC(c2cccc(Oc3ccccc3)c2)N(CCc2cccs2)C1=O (stereo not drawn)
  GI50: 1.56 µM
  TGI: 5.06 µM

## c1ccc(C2(c3cc4ccccc4[nH]3)OCCO2)cc1
  TGI: > 100 µM

## COCC(O)CN1C(N)=NC(O)C1O (stereo not drawn)
  TGI: > 100 µM

## CCC(c1ccc(N(C)C)cc1)C1NC(=S)NC1=O (stereo not drawn)
  TGI: > 100 µM

## O=C(O)CCCCCNC(=O)CCC(CN(CC(=O)OCc1ccccc1)CC(=O)OCc1ccccc1)N(CC(=O)OCc1ccccc1)CC(=O)OCc1ccccc1 (stereo not drawn)
  TGI: 29.7 µM

## CC1=CC(=O)C[C@]2(C)[C@@H](O)CC(C(C)CO)C[C@@H]12 (stereo partly drawn)
  TGI: > 100 µM
